Some of the results follow. Sequences were assembled here from the parent chain. Values near 0.05 are background.
B1: TEV protease; numbered along this chain (parent)
chain: MGESLFKGPRDYNPISSSICHLTNESDGHTTSLYGIGFGPFIITNKHLFRRNNGTLVVQSLHGVFKVKDTTTLQQHLVDGRDMIIIRMPKDFPPFPQKLKFREPQREERICLVTTNFQTKSMSSMVSDTSCTFPSGDGIFWKHWIQTKDGQCGSPLVSTRDGFIVGIHSASNFTNTNNYFTSVPKNFMELLTNQEAQQWVSGWRLNADSVLWGGHKVFMVKPEEPFQPVKEATQL

Variants of: B1
Experiment: raw area under fraction-flipped curve 0-4 h after induction (AUC4h, not background-subtracted), DNA-recorder readout of cleavage of the substrate (dimensionless); higher = more cleavage of the substrate by the protease variant
Details: temperature: 34 °C; time window: 0-4 h after rhamnose induction
Description: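 In vivo DNA recorder in E. coli TOP10(DE3) ΔrhaA at 34 °C. Each TEVp single-site mutant (parent TEVp 0) is paired with a single-site variant of the 7-mer TEVs (canonical ENLYFQ|S). The substrate sits between flexible linkers in a Bxb1-sfGFP-TEVs-SsrA fusion, so cleavage stabilises Bxb1 and speeds flipping of a recombination array, read by NGS. The value is the raw area under the fraction-flipped curve over 0-4 h after rhamnose induction (AUC4h), with ≥20 reads per time point. It is not background-subtracted; inactive controls average about 0.047.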
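Note: Bxb1 expression induced with 0.2% (w/v) L-rhamnose at OD600 near 0.5, cultures sampled hourly, flipped fraction per protease–substrate barcode pair counted by paired-end Illumina sequencing.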

| Variant | area with substrate ENLYFQA | area with substrate ENLYFQC | area with substrate ENLYFQH | area with substrate ENLYFQK | area with substrate ENLYFQL | area with substrate ENLYFQP | area with substrate ENLYFQR | area with substrate ENLYFQS | area with substrate ENLYFQT | area with substrate ENLYFQW |
| --- | --- | --- | --- | --- | --- | --- | --- | --- | --- | --- |
| MGESLFKGPRDYNPISSSICHLTNESDGHTTSLYGIGFGPFIITNKHLFRRNNGTLVVQSLHGVFKVKDTTTLQQHLVDGRDMIIIRMPKDFCPFPQKLKFREPQREERICLVTTNFQTKSMSSMVSDTSCTFPSGDGIFWKHWIQTKDGQCGSPLVSTRDGFIVGIHSASNFTNTNNYFTSVPKNFMELLTNQEAQQWVSGWRLNADSVLWGGHKVFMVKPEEPFQPVKEATQL [P93C] | 0.105 | 0.127 | 0.0731 | 0.0769 | 0.0746 | 0.0758 | 0.0634 | 0.1 | 0.0581 | 0.0639 |
| MGESLFKGPRDYNPISSSICHLTNESDGHTTSLYGIGFGPFIITNKHLFRRNNGTLVVQSLHGVFKVKDTTTLQQHLVDGRDMIIIRMPKDFPVFPQKLKFREPQREERICLVTTNFQTKSMSSMVSDTSCTFPSGDGIFWKHWIQTKDGQCGSPLVSTRDGFIVGIHSASNFTNTNNYFTSVPKNFMELLTNQEAQQWVSGWRLNADSVLWGGHKVFMVKPEEPFQPVKEATQL [P94V] | 0.088 | 0.181 |  | 0.0703 |  |  | 0.0722 | 0.115 | 0.0743 |  |
| MGESLFKGPRDYNPISSSICHLTNESDGHTTSLYGIGFGPFIITNKHLFRRNNGTLVVQSLHGVFKVKDTTTLQQHLVDGRDMIIIRMPKDFPPLPQKLKFREPQREERICLVTTNFQTKSMSSMVSDTSCTFPSGDGIFWKHWIQTKDGQCGSPLVSTRDGFIVGIHSASNFTNTNNYFTSVPKNFMELLTNQEAQQWVSGWRLNADSVLWGGHKVFMVKPEEPFQPVKEATQL [F95L] | 0.038 |  |  | 0.0611 | 0.0593 |  |  | 0.0948 |  | 0.0794 |
| MGESLFKGPRDYNPISSSICHLTNESDGHTTSLYGIGFGPFIITNKHLFRRNNGTLVVQSLHGVFKVKDTTTLQQHLVDGRDMIIIRMPKDFPPNPQKLKFREPQREERICLVTTNFQTKSMSSMVSDTSCTFPSGDGIFWKHWIQTKDGQCGSPLVSTRDGFIVGIHSASNFTNTNNYFTSVPKNFMELLTNQEAQQWVSGWRLNADSVLWGGHKVFMVKPEEPFQPVKEATQL [F95N] | 0.104 | 0.101 |  | 0.0651 |  | 0.048 | 0.0548 | 0.088 | 0.0252 |  |
| MGESLFKGPRDYNPISSSICHLTNESDGHTTSLYGIGFGPFIITNKHLFRRNNGTLVVQSLHGVFKVKDTTTLQQHLVDGRDMIIIRMPKDFPPFPCKLKFREPQREERICLVTTNFQTKSMSSMVSDTSCTFPSGDGIFWKHWIQTKDGQCGSPLVSTRDGFIVGIHSASNFTNTNNYFTSVPKNFMELLTNQEAQQWVSGWRLNADSVLWGGHKVFMVKPEEPFQPVKEATQL [Q97C] | 0.0826 |  |  |  |  |  |  | 0.0967 |  |  |
| MGESLFKGPRDYNPISSSICHLTNESDGHTTSLYGIGFGPFIITNKHLFRRNNGTLVVQSLHGVFKVKDTTTLQQHLVDGRDMIIIRMPKDFPPFPDKLKFREPQREERICLVTTNFQTKSMSSMVSDTSCTFPSGDGIFWKHWIQTKDGQCGSPLVSTRDGFIVGIHSASNFTNTNNYFTSVPKNFMELLTNQEAQQWVSGWRLNADSVLWGGHKVFMVKPEEPFQPVKEATQL [Q97D] | 0.0932 |  | 0.0689 |  | 0.0584 |  | 0.0591 | 0.107 |  |  |
| MGESLFKGPRDYNPISSSICHLTNESDGHTTSLYGIGFGPFIITNKHLFRRNNGTLVVQSLHGVFKVKDTTTLQQHLVDGRDMIIIRMPKDFPPFPEKLKFREPQREERICLVTTNFQTKSMSSMVSDTSCTFPSGDGIFWKHWIQTKDGQCGSPLVSTRDGFIVGIHSASNFTNTNNYFTSVPKNFMELLTNQEAQQWVSGWRLNADSVLWGGHKVFMVKPEEPFQPVKEATQL [Q97E] | 0.117 |  |  |  |  |  |  | 0.104 |  |  |
| MGESLFKGPRDYNPISSSICHLTNESDGHTTSLYGIGFGPFIITNKHLFRRNNGTLVVQSLHGVFKVKDTTTLQQHLVDGRDMIIIRMPKDFPPFPLKLKFREPQREERICLVTTNFQTKSMSSMVSDTSCTFPSGDGIFWKHWIQTKDGQCGSPLVSTRDGFIVGIHSASNFTNTNNYFTSVPKNFMELLTNQEAQQWVSGWRLNADSVLWGGHKVFMVKPEEPFQPVKEATQL [Q97L] | 0.0895 |  |  |  | 0.0588 |  |  | 0.105 |  |  |
| MGESLFKGPRDYNPISSSICHLTNESDGHTTSLYGIGFGPFIITNKHLFRRNNGTLVVQSLHGVFKVKDTTTLQQHLVDGRDMIIIRMPKDFPPFPNKLKFREPQREERICLVTTNFQTKSMSSMVSDTSCTFPSGDGIFWKHWIQTKDGQCGSPLVSTRDGFIVGIHSASNFTNTNNYFTSVPKNFMELLTNQEAQQWVSGWRLNADSVLWGGHKVFMVKPEEPFQPVKEATQL [Q97N] | 0.139 | 0.109 |  |  |  |  |  | 0.103 |  |  |
| MGESLFKGPRDYNPISSSICHLTNESDGHTTSLYGIGFGPFIITNKHLFRRNNGTLVVQSLHGVFKVKDTTTLQQHLVDGRDMIIIRMPKDFPPFPQVLKFREPQREERICLVTTNFQTKSMSSMVSDTSCTFPSGDGIFWKHWIQTKDGQCGSPLVSTRDGFIVGIHSASNFTNTNNYFTSVPKNFMELLTNQEAQQWVSGWRLNADSVLWGGHKVFMVKPEEPFQPVKEATQL [K98V] | 0.0786 | 0.111 | 0.0906 |  | 0.0587 |  | 0.0611 | 0.113 |  | 0.0912 |
| MGESLFKGPRDYNPISSSICHLTNESDGHTTSLYGIGFGPFIITNKHLFRRNNGTLVVQSLHGVFKVKDTTTLQQHLVDGRDMIIIRMPKDFPPFPQKMKFREPQREERICLVTTNFQTKSMSSMVSDTSCTFPSGDGIFWKHWIQTKDGQCGSPLVSTRDGFIVGIHSASNFTNTNNYFTSVPKNFMELLTNQEAQQWVSGWRLNADSVLWGGHKVFMVKPEEPFQPVKEATQL [L99M] | 0.095 |  |  | 0.0619 | 0.062 | 0.051 | 0.0566 | 0.0939 |  | 0.0697 |

Same assay, conditions: temperature: 34 °C; time window: 0-4 h after rhamnose induction

| Variant | area with substrate ENLYFQI | area with substrate ENLYFQN | area with substrate ENLYFQY | area with substrate ENLYFQF | area with substrate ENLYFQV | area with substrate ENLYFQG | area with substrate ENLYFQD | area with substrate ENLYFQM |
| --- | --- | --- | --- | --- | --- | --- | --- | --- |
| MGESLFKGPRDYNPISSSICHLTNESDGHTTSLYGIGFGPFIITNKHLFRRNNGTLVVQSLHGVFKVKDTTTLQQHLVDGRDMIIIRMPKDFPVFPQKLKFREPQREERICLVTTNFQTKSMSSMVSDTSCTFPSGDGIFWKHWIQTKDGQCGSPLVSTRDGFIVGIHSASNFTNTNNYFTSVPKNFMELLTNQEAQQWVSGWRLNADSVLWGGHKVFMVKPEEPFQPVKEATQL [P94V] | 0.0566 | 0.0892 | 0.0894 |  |  |  |  |  |
| MGESLFKGPRDYNPISSSICHLTNESDGHTTSLYGIGFGPFIITNKHLFRRNNGTLVVQSLHGVFKVKDTTTLQQHLVDGRDMIIIRMPKDFPPLPQKLKFREPQREERICLVTTNFQTKSMSSMVSDTSCTFPSGDGIFWKHWIQTKDGQCGSPLVSTRDGFIVGIHSASNFTNTNNYFTSVPKNFMELLTNQEAQQWVSGWRLNADSVLWGGHKVFMVKPEEPFQPVKEATQL [F95L] | 0.0564 |  |  | 0.069 |  |  |  |  |
| MGESLFKGPRDYNPISSSICHLTNESDGHTTSLYGIGFGPFIITNKHLFRRNNGTLVVQSLHGVFKVKDTTTLQQHLVDGRDMIIIRMPKDFPPFPCKLKFREPQREERICLVTTNFQTKSMSSMVSDTSCTFPSGDGIFWKHWIQTKDGQCGSPLVSTRDGFIVGIHSASNFTNTNNYFTSVPKNFMELLTNQEAQQWVSGWRLNADSVLWGGHKVFMVKPEEPFQPVKEATQL [Q97C] |  |  | 0.0842 |  |  |  |  |  |
| MGESLFKGPRDYNPISSSICHLTNESDGHTTSLYGIGFGPFIITNKHLFRRNNGTLVVQSLHGVFKVKDTTTLQQHLVDGRDMIIIRMPKDFPPFPDKLKFREPQREERICLVTTNFQTKSMSSMVSDTSCTFPSGDGIFWKHWIQTKDGQCGSPLVSTRDGFIVGIHSASNFTNTNNYFTSVPKNFMELLTNQEAQQWVSGWRLNADSVLWGGHKVFMVKPEEPFQPVKEATQL [Q97D] |  | 0.0862 |  |  | 0.0629 |  |  |  |
| MGESLFKGPRDYNPISSSICHLTNESDGHTTSLYGIGFGPFIITNKHLFRRNNGTLVVQSLHGVFKVKDTTTLQQHLVDGRDMIIIRMPKDFPPFPEKLKFREPQREERICLVTTNFQTKSMSSMVSDTSCTFPSGDGIFWKHWIQTKDGQCGSPLVSTRDGFIVGIHSASNFTNTNNYFTSVPKNFMELLTNQEAQQWVSGWRLNADSVLWGGHKVFMVKPEEPFQPVKEATQL [Q97E] | 0.0186 |  |  |  |  |  |  |  |
| MGESLFKGPRDYNPISSSICHLTNESDGHTTSLYGIGFGPFIITNKHLFRRNNGTLVVQSLHGVFKVKDTTTLQQHLVDGRDMIIIRMPKDFPPFPNKLKFREPQREERICLVTTNFQTKSMSSMVSDTSCTFPSGDGIFWKHWIQTKDGQCGSPLVSTRDGFIVGIHSASNFTNTNNYFTSVPKNFMELLTNQEAQQWVSGWRLNADSVLWGGHKVFMVKPEEPFQPVKEATQL [Q97N] | 0.0476 | 0.0338 | 0.0862 |  |  | 0.146 |  |  |
| MGESLFKGPRDYNPISSSICHLTNESDGHTTSLYGIGFGPFIITNKHLFRRNNGTLVVQSLHGVFKVKDTTTLQQHLVDGRDMIIIRMPKDFPPFPQVLKFREPQREERICLVTTNFQTKSMSSMVSDTSCTFPSGDGIFWKHWIQTKDGQCGSPLVSTRDGFIVGIHSASNFTNTNNYFTSVPKNFMELLTNQEAQQWVSGWRLNADSVLWGGHKVFMVKPEEPFQPVKEATQL [K98V] | 0.0624 |  |  | 0.0815 |  |  | 0.0704 | 0.0868 |
| MGESLFKGPRDYNPISSSICHLTNESDGHTTSLYGIGFGPFIITNKHLFRRNNGTLVVQSLHGVFKVKDTTTLQQHLVDGRDMIIIRMPKDFPPFPQKMKFREPQREERICLVTTNFQTKSMSSMVSDTSCTFPSGDGIFWKHWIQTKDGQCGSPLVSTRDGFIVGIHSASNFTNTNNYFTSVPKNFMELLTNQEAQQWVSGWRLNADSVLWGGHKVFMVKPEEPFQPVKEATQL [L99M] | 0.0486 | 0.0894 | 0.0958 |  |  | 0.0927 | 0.0673 | 0.0711 |
